# This is one part of the list.
# Tested on: HSkMC (human skeletal muscle cells)
# Experiment: cytotoxicity call (relative viability < 0.9)
# Conditions: 10 µM
row,SMILES,cytotoxicity call
1,Cc1ccn2c(=O)c(C(=O)O)cnc2c1,inactive
2,C=CCOC(=O)[C@H]1[C@@H]2C(=O)O[C@@H](c3ccccc3)[C@@H](c3ccccc3)N2[C@@H](c2ccc(OCCOC(=O)[C@H]3C[C@H]4C(=O)NCC(=O)N4[C@H]3c3ccc(O)cc3)cc2)[C@]12C(=O)Nc1ccccc12,inactive
3,C[C@H](CO)N1C[C@H](C)[C@H](CN(C)Cc2ccc(Cl)c(Cl)c2)Oc2ccc(NS(=O)(=O)c3ccc(Cl)cc3)cc2CC1=O,active
4,O=C(C[C@H]1CC[C@H]2[C@@H](COC[C@@H](O)CN2S(=O)(=O)c2cccc(F)c2)O1)NCc1ccc2c(c1)OCO2,inactive
5,C[C@H](CO)N1C[C@H](C)[C@@H](CN(C)CC2CCCCC2)Oc2ccc(NC(=O)CCN3CCOCC3)cc2CC1=O,inactive
6,C[C@@H]1CCCCO[C@@H](CN(C)CC2CCCCC2)[C@H](C)CN([C@H](C)CO)C(=O)c2cc(NC(=O)Nc3ccccc3)ccc2O1,inactive
7,Cc1ccc(S(=O)(=O)Nc2ccc3c(c2)C(=O)N([C@@H](C)CO)C[C@H](C)[C@H](CN(C)C(=O)c2ccccc2)OCCCC[C@@H](C)O3)cc1,inactive

# Tested on: HepG2
# Experiment: cytotoxicity call (relative viability < 0.9)
# Conditions: 10 µM
row,SMILES,cytotoxicity call
1,C[C@H]1CN([C@@H](C)CO)C(=O)c2cc(NC(=O)Nc3ccc4c(c3)OCO4)ccc2O[C@@H]1CN(C)S(C)(=O)=O,inactive
2,C=C(CC)C(=O)c1ccc(OCC(=O)O)c(Cl)c1Cl,inactive
3,CCc1nc2ccc(C(=O)N3CCN(S(=O)(=O)CC)CC3)cn2c1N(C=O)Cc1ccc(OC)cc1,inactive
4,C[C@H](CO)N1C[C@H](C)[C@@H](CN(C)Cc2ccncc2)OCCCC[C@H](C)Oc2ccc(NC(=O)Nc3ccc(F)cc3)cc2C1=O,inactive
5,C[C@@H]1CN([C@@H](C)CO)C(=O)Cc2cc(NC(=O)c3ccncc3)ccc2O[C@@H]1CN(C)S(=O)(=O)c1cccs1,active
6,CN(C)c1nc(N)nc(Cn2ccnc2)n1,inactive
7,C[C@H](CO)N1C[C@H](C)[C@H](CN(C)S(=O)(=O)c2cccc(F)c2)Oc2ncc(-c3cccc(C(=O)N(C)C)c3)cc2C1=O,inactive
8,Cc1noc(C)c1NC(=O)N(C)C[C@@H]1Oc2ccc(NC(=O)C3CC3)cc2CC(=O)N([C@H](C)CO)C[C@@H]1C,inactive
9,CC[C@H]1CN(C(=O)c2cnccn2)N1C,inactive
10,O=C(C[C@H]1CC[C@@H](NS(=O)(=O)c2ccc(F)cc2)[C@@H](CO)O1)NCc1ccc(Cl)c(Cl)c1,inactive
11,CCCCCC/C=C\CCCCCCCC(=O)O,inactive
12,COC(=O)c1c(CC[C@@H](CO)NC(=O)N[C@H](Cn2cc(Cc3ccccc3)nn2)C(C)C)oc(C(C)=O)c1C(=O)OC,inactive
13,C[C@H](CO)N1C[C@H](C)[C@H](CN(C)C(=O)Nc2ccccc2)Oc2ccc(NS(C)(=O)=O)cc2C1=O,inactive
14,Cc1noc(C)c1S(=O)(=O)Nc1cccc2c1O[C@@H](CN(C)S(=O)(=O)c1cccs1)[C@@H](C)CN([C@H](C)CO)C2=O,inactive
15,C[C@H]1CN([C@@H](C)CO)C(=O)CCCn2cc(nn2)CO[C@@H]1CN(C)C(=O)Nc1ccc(C(C)(C)C)cc1,inactive
16,C[C@@H]1CN([C@@H](C)CO)C(=O)c2cc(C#Cc3ccccc3)cnc2O[C@H]1CN(C)C(=O)CCN1CCCCC1,inactive
17,N#CCC(=O)NN,inactive
18,C[C@H]1CN([C@@H](C)CO)C(=O)c2cc(Br)cnc2O[C@@H]1CN(C)C(=O)Nc1ccc(F)cc1,inactive
19,C[C@@H]1CN([C@H](C)CO)C(=O)c2cc(NC(=O)Nc3ccc4c(c3)OCO4)ccc2O[C@@H](C)CCCCO[C@@H]1CN(C)Cc1ccc(C(=O)O)cc1,inactive
20,CC(=NNC(=O)c1nnn(-c2nonc2N)c1CN1CCC(C)CC1)c1cccc(Br)c1,inactive
21,O=C(CCCN1CCN(c2ccccn2)CC1)c1ccc(F)cc1,inactive
22,C[C@@H]1CN([C@H](C)CO)S(=O)(=O)c2ccc(C3=CCCC3)cc2O[C@@H]1CN(C)C(=O)C1CCOCC1,inactive
23,C[C@@H]1CCCCO[C@H](CN(C)C(=O)c2ccccc2)[C@@H](C)CN([C@H](C)CO)C(=O)c2cc(NC(=O)Nc3ccc4c(c3)OCO4)ccc2O1,inactive
24,C[C@H](CO)N1C[C@H](C)[C@@H](CN(C)C(=O)Nc2ccc(F)cc2)OCCCC[C@H](C)Oc2ccc(NC(=O)Nc3ccc(F)cc3)cc2C1=O,inactive
25,C[C@H]1CN([C@@H](C)CO)C(=O)Cc2cc(NS(C)(=O)=O)ccc2O[C@H]1CN(C)C(=O)Nc1ccc2c(c1)OCO2,inactive

# Reference: the antibiotic and cytotoxicity screens of Wong et al. (2023)
